Measured values from PubChem BioAssay AID588453 (National Center for Advancing Translational Sciences (NCATS), 2011).
Hit rate of the full screen: of about 390,000 compounds, about 4,000 (1%) were called active. Inconclusive results, whose numbers are uncertain, are shown with a selection of clear calls. Calls follow the shape of the dose curve; as a rule, active = well fitted inhibition curve with a large enough effect; inconclusive = small, poorly fitted or top-dose-only effect; inactive = no such curve, though single readings can be large or run the other way. Potencies of inconclusive entries are doubtful fits and often do not repeat.

biological target: Thioredoxin reductase 1, cytoplasmic (Rattus norvegicus) (UniProt O89049); experiment: qHTS Assay for Inhibitors of Mammalian Selenoprotein Thioredoxin Reductase 1 (TrxR1): qHTS; conditions: recombinant rTrxR1, NADPH fluorescence consumption, selenite substrate; series mostly up to 114 µM; also: nearly all actives have a fitted effect of over 65% in size
UniProt O89049, sequence (O89049 whole entry, looked up): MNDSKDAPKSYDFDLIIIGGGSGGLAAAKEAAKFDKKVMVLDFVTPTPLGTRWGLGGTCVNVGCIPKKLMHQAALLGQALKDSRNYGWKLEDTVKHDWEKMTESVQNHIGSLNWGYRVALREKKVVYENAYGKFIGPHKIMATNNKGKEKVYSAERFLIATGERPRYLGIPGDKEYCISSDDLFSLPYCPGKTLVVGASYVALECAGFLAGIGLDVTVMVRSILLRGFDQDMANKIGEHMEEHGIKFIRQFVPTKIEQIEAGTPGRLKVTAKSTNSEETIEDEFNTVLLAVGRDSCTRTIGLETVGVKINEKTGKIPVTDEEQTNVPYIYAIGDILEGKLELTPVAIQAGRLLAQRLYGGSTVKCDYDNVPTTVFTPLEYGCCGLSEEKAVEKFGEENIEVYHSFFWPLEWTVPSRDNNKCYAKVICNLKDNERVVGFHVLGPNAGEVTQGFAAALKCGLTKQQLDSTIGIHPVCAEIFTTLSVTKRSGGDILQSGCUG
How it was run: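 Rat TrxR1 (90 nM in the dispensed reagent) was pre-reduced with 400 uM NADPH for 5 min at room temperature, then incubated with compound for 15 min. After 400 uM selenite was added, NADPH fluorescence (Ex 340/Em 450 nm) was followed for 8 min.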
Potency is read from the fitted curve at half-maximal effect; tags tell the direction and shape of the fitted curve.

Row | Compound | Potency
1 | COc1ccc(-c2ccc3c(c2)S(=O)(=O)c2cccc(C(=O)NC[C@@H]4CCCO4)c2C3=O)cc1OC | inconclusive: 14.1 µM [inhibitor, partial curve, poor fit]
2 | O=C(Nc1ccc(NC(=S)NC(=O)c2ccccc2Cl)cc1)c1cccc(Cl)c1 | inactive
3 | Cn1c(=NC(=O)CCS(=O)(=O)c2ccccc2)sc2cc(F)ccc21 | inconclusive: 50.1 µM [inhibitor, partial curve, poor fit]
4 | Cc1ccc(C)c(S(=O)(=O)NCc2ccc(C(=O)NCc3ccco3)cc2)c1 | inconclusive: 35.5 µM [inhibitor, single point]
5 | C#CCOCCOCCOCCNc1nc(N2CCN(C(=O)CCCCCCCCCCNC(=O)Cn3cc(C[C@@H](C)O)nn3)CC2)nc(N2CCN(C(=O)CCCCCCCCCCNC(=O)[C@H](CCCCN)n3cc(CCCC(=O)O)nn3)CC2)n1 | inconclusive: 44.7 µM [inhibitor, partial curve]
6 | COc1cc(OC)c(/C=C/c2cc3ccccc3c[n+]2C)c(OC)c1 | inactive
7 | O=C(CSCC(=O)Nc1cccc([N+](=O)[O-])c1)Nc1ccccc1 | inconclusive: 4.47 µM [inhibitor, single point]
8 | O=C(CCN1CCCCC1)N=Nc1c(O)[nH]c2ccccc12 | inconclusive: 31.6 µM [inhibitor, single point]
9 | COc1ccc(CNC(=O)CCc2nc3cccnc3n2Cc2ccccc2)cc1 | inactive
10 | COc1ccc(OC)c(N(CC(=O)NCCSCc2ccco2)S(=O)(=O)c2ccccc2)c1 | inactive
11 | CC1(C)Cc2c(C#N)c(N3CCN(C(=O)c4ccco4)CC3)nc(-c3ccco3)c2CS1 | active: 7.08 µM
12 | CC(=O)Nc1c(C(=O)O)oc2ccccc12 | inconclusive: 89.1 µM [inhibitor, partial curve, poor fit]
13 | O=C(NCCN1CCCCCC1)c1ccc(CS(=O)(=O)c2ccc(Br)cc2)o1 | inconclusive: 31.6 µM [inhibitor, partial curve, poor fit]
14 | COc1ccccc1-c1nc(SCC(=O)NCc2ccco2)c2c(=O)n(C)c(=O)n(C)c2n1 | inconclusive: 39.8 µM [inhibitor, partial curve, poor fit]
15 | Cc1ccccc1Nc1nnc(SCC(=O)c2c(N)n(C3CC3)c(=O)[nH]c2=O)s1 | inconclusive: 79.4 µM [inhibitor, single point]
16 | CCCCNc1ncnc2oc(-c3ccco3)c(-c3ccco3)c12 | inconclusive: 39.8 µM [inhibitor, partial curve]
17 | COc1ccc(NC(=O)c2ccc(OC(F)F)cc2)cc1Cl | inconclusive: 89.1 µM [inhibitor, partial curve, poor fit]
18 | O=C(Nc1ccc2oc(-c3cccnc3)nc2c1)c1ccc(Br)o1 | active: 44.7 µM
19 | CCOC(=O)c1c(S(=O)(=O)NCC(=O)Nc2cccc(CC)c2)c(C)n(C)c1C | inactive
20 | O=C(c1ccc(Cl)cc1)N1CCN(c2ccc([N+](=O)[O-])c3ncccc23)CC1 | inactive
21 | CCN(CCCN(C)C)c1ccc(/C=C/c2ccnc3ccccc23)cc1 | inconclusive: 14.1 µM [inhibitor, partial curve]
22 | CC(=O)Nc1ccccc1-c1nc2ccc(C(=O)N3CCN(c4cccc(C)c4)C(C)C3)cc2[nH]c1=O (stereo unspecified) | inconclusive: 89.1 µM [inhibitor, single point]

Row | Compound | Potency
23 | Cc1cc(C(=O)NCc2ccccc2C)c2c(C)nn(-c3cccc(F)c3)c2n1 | inactive
24 | COC(=O)[C@@H]1N2C(=O)[C@@H](NC(=O)C(C)Oc3ccccc3)[C@H]2SC1(C)C (stereo partly specified) | inactive
25 | O=C1C(Nc2ccccc2)=C(N2CCCCC2)C(=O)c2ccccc21 | inconclusive: 28.2 µM [inhibitor, single point]
26 | Cc1ccc(CNC(=O)C2(C(F)(F)F)C/C(=C\CCO)CCCO2)o1 (stereo unspecified) | inconclusive: 44.7 µM [inhibitor, single point]
27 | O=C(Nc1nccs1)c1nc[nH]c1C(=O)NCc1ccccc1 | inactive
28 | C=CC(=O)Nc1sc2c(c1C(N)=O)CCCC2 | inconclusive: 56.2 µM [inhibitor, partial curve, poor fit]
29 | Cc1cc([N+](=O)[O-])ccc1NC(=S)NC(=O)Cc1ccccc1 | inconclusive: 28.2 µM [inhibitor, partial curve, poor fit]
30 | CC(C)CCNC(=O)C1CCCN(S(=O)(=O)c2ccc3c(c2)CC(C)N3C(=O)C2CC2)C1 (stereo unspecified) | inconclusive: 89.1 µM [inhibitor, single point]
31 | Cc1ccc(CSc2ccc(-c3ccco3)nn2)cc1 | inconclusive: 50.1 µM [inhibitor, partial curve]
32 | Oc1[nH]c2ccccc2c1N=NC(=S)NCC1CCCO1 (stereo unspecified) | inconclusive: 79.4 µM [inhibitor, single point]
33 | Nc1[nH]c(=O)nc2nnsc12 | inconclusive: 12.6 µM [inhibitor, partial curve, poor fit]
34 | CCc1ccc(CSc2nc(-c3ccc(OC)cc3)nc3c2Cc2c(CO)cnc(C)c2O3)cc1 | inconclusive: 89.1 µM [inhibitor, single point]
35 | O=C(Nc1ccc2oc(-c3cccnc3)nc2c1)c1ccc(-c2ccc(Cl)cc2)o1 | inconclusive: 56.2 µM [inhibitor, partial curve]
36 | CCN(CC)CCCNC(=O)C1CCC(CNS(=O)(=O)c2c(C)cc(C)cc2C)CC1 (stereo unspecified) | inconclusive: 39.8 µM [inhibitor, single point]
37 | CCOC(=O)c1c(NC(=O)CN2CCCCC2)sc2c1CCC(C=O)=C2Cl | inconclusive: 35.5 µM [inhibitor, single point]
38 | CC(C)CNc1ncnc2oc(-c3ccco3)c(-c3ccco3)c12 | inconclusive: 39.8 µM [inhibitor, partial curve]
39 | O=C(O)c1ccccc1/C=N/NC(=O)c1cc(-c2ccco2)nc2ccccc12 | inconclusive: 20 µM [inhibitor, full curve, poor fit]
40 | COC(=O)c1cccnc1NC(=S)NNC(=O)c1ccccc1 | inconclusive: 35.5 µM [inhibitor, partial curve, poor fit]
41 | O=[N+]([O-])c1c(NCCO)cc(N2CCCCC2)c2nonc12 | inactive
42 | O=C(NC(=S)Nc1cccc(CO)c1)c1ccc(-c2ccccc2)cc1 | inconclusive: 17.8 µM [inhibitor, partial curve, poor fit]
43 | Cc1ccc(OCC(=O)N/N=C/C=C/c2ccco2)cc1 | inconclusive: 3.16 µM [inhibitor, partial curve, poor fit]
44 | COC(=O)c1ccc(Cn2cc(/C=C\[N+](=O)[O-])c3ccccc32)o1 | inconclusive: 50.1 µM [inhibitor, partial curve]

Row | Compound | Potency
45 | COc1ccc(OCc2n[nH]c(=S)n2N)cc1 | inconclusive: 7.94 µM [inhibitor, partial curve, poor fit]
46 | COc1ccccc1Oc1c(C)oc2c(CN3CCN(CCO)CC3)c(O)ccc2c1=O | inconclusive: 89.1 µM [inhibitor, single point]
47 | N#C/C(=C/c1cn(-c2ccccc2)nc1-c1cccc(S(=O)(=O)N2CCCC2)c1)C(=O)NCc1ccco1 | inconclusive: 70.8 µM [inhibitor, partial curve]
48 | O=C(NCc1ccco1)C1CCN(C(=O)c2ccc([N+](=O)[O-])cc2)CC1 | inconclusive: 89.1 µM [inhibitor, single point]
49 | N#CC1=C(N)OC(c2ccccc2)=C(C#N)C1c1ccc2c(c1)OCO2 (stereo unspecified) | inconclusive: 3.98 µM [inhibitor, full curve, poor fit]
50 | COc1ccccc1NS(=O)(=O)c1cc(NC(=O)c2cnccn2)ccc1N1CCOCC1 | inactive
51 | COc1ccc(CNC(=O)c2cc3c(=O)n4ccccc4nc3n(Cc3cccnc3)c2=N)cc1 | inactive
52 | OC(COCC1COc2ccccc2O1)CN1CCN(c2ccccc2)CC1 (stereo unspecified) | inactive
53 | COC(=O)c1cc(=O)n(Cc2ccco2)c(=Nc2ccc(F)cc2)s1 | inconclusive: 20 µM [inhibitor, partial curve, poor fit]
54 | COc1ccc(CCNC(=O)c2ccc3c(Cl)c4c(nc3c2)CCCC4)c(OC)c1 | inactive
55 | CCOC(=O)c1ccc2c(c1)nc(C1CCN(S(=O)(=O)c3cccs3)CC1)n2CC | inactive
56 | CC(=O)c1ccc(N2CCN(c3ncnc4onc(C)c34)CC2)cc1 | inactive
57 | CCC1C(=O)N=C(SCC(=O)Nc2ccc(C)cc2)N(c2ccccc2)C1=O (stereo unspecified) | inactive
58 | Cc1ccc2c(c1C)NC(=O)CC2c1ccc(Cl)cc1Cl (stereo unspecified) | inactive
59 | CCOC(=O)/C(C#N)=C\c1cc(OC)c(OC)cc1[N+](=O)[O-] | inactive
60 | O=[N+]([O-])c1cc([N+](=O)[O-])c2cccnc2c1Oc1ccccc1O | inconclusive: 0.316 µM [inhibitor, full curve, poor fit]
61 | Cc1ccc2nc(-c3ccc(N)cc3)sc2c1 | inconclusive: 28.2 µM [inhibitor, partial curve, poor fit]
62 | Cc1cc(NS(=O)(=O)c2ccc(NC(=O)/C=C/c3ccco3)cc2)nc(C)n1 | active: 12.6 µM
63 | Oc1ccc(CN2CCCCC2)c2cccnc12 | inactive
64 | Cc1cccc(CS(=O)(=O)Cc2ccc(C(=O)NCc3ccco3)o2)c1 | inconclusive: 79.4 µM [inhibitor, single point]
65 | CCc1ccc(-c2nc(CS(=O)CC(=O)NCc3ccccc3)c(C)o2)cc1 (stereo unspecified) | active: 31.6 µM
66 | Cc1ccc(CS(=O)(=O)c2ncc(Cl)c(C(=O)Nc3nnc(C)s3)n2)cc1 | inconclusive: 8.91 µM [inhibitor, partial curve, poor fit]
